# Results taken from patent publication US20240269278A1, “ANTI-CD47 ANTIBODY FOR COMBINED TREATMENT OF BLOOD TUMOR” (Nanjing Shunxin Pharmaceuticals Co., Ltd. of Chiatai …, priority 2021, published 2024).
# Tests used:
# HL60 cells = assay: Promotion of macrophage phagocytosis of tumor cells (flow cytometry); assay type: cell-based, human; details: for rate of phagocytosis: CFSE-labeled HL60 cells, human macrophages
# In short: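 Human blood monocytes differentiated into macrophages with 100 ng/mL M-CSF for 7 days. CFSE-labelled HL60 cells preincubated 1-2 h at 37 °C with anti-CD47 antibodies at 10 or 1 μg/mL, then co-cultured with macrophages 2-4 h. Macrophages stained for CD14/CD11b; phagocytosis rate (%) measured by flow cytometry.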
# [1] = Thermostability assay based on Nano DSF (Prometheus NT.48); assay type: physicochemical
# Experimental: The high-throughput protein stability analyzer Prometheus NT.48 is an instrument for acquiring various types of data such as protein molecular structure stability, aggregation stability, and colloid dispersion stability. The melting temperatures (Tm) and the aggregation temperatures (Tagg) of the anti-CD47 chimeric antibodies and the anti-CD47 humanized antibodies were determined using this instrument.
# Raji cells = assay: Hematologic tumor mouse model of lymphoma Raji cells, survival; assay type: in vivo, NOD/SCID mice; details: 10 mg/kg intraperitoneal, 21 consecutive days
# Experimental: A hematologic tumor mouse model was established using hematologic tumor Raji cells. The anti-CD47 antibodies were applied to the model for the evaluation of the pharmacodynamic activity.
# A suspension of Raji cells in a PBS buffer was prepared at a concentration of 5×10^6 cells/mL, and was injected into female NOD/SCID mice via the tail vein at 0.1 mL/mouse. […] The administration was performed by intraperitoneal injection in doses of 10 mg/kg for 21 consecutive days. The survival time of the animals was observed.
# [2] = Toxicity assay in single administration; assay type: in vivo, B-hCD47 mice
# Source text: Since CD47 is expressed on red cells and plays a role in clearing aged red cells, the toxic effects of the anti-CD47 antibodies in B-hCD47 mice were compared.
# [3] = tested on: human acute myeloblastic leukemia MOLM-16; assay: Subcutaneous mouse xenograft tumor of MOLM-16; assay type: in vivo
# Experimental: The experimental animals were NOD-SCID mice (5-6 weeks old, female) purchased from Beijing Huafukang Biotechnology Co., Ltd., with the production license number of SCXK (Jing) 2019-0008 and the animal certification number of 110322211100910838. The housing environment was in a SPF grade. Human acute myelocytic leukemia MOLM-16 cells were purchased from DSMZ. MOLM-16 cells were cultured in an incubator at 37° C. with 5% CO2 in air. Subculturing was performed twice a week, and when the cells were in a logarithmic growth phase, the cells were collected, counted, and inoculated. 1×10^7 MOLM-16 cells were inoculated to each mouse subcutaneously, and when tumors reached the volume of 100-150 mm^3, the mice were divided into groups and injected with drugs intravenously (IV) at the administration volume of 0.1 mL/10 g of body weight.
# (§1) The experimental index was to investigate the effects of the drugs on the tumor growth, and the specific index was T/C % or the tumor growth inhibition rate (TGI %, tumor growth inhibition).
# (§2) Tumor diameters were measured twice a week with a vernier caliper and tumor volume (V) was calculated according to the following formula: […]
# (§3) where a and b represent length and width, respectively.
# (§4) T/C (%)=(T−T0)/(C−C0)×100,
# (§5) where T and C are the tumor volumes of animals at the end of the experiment in the test group and the negative control group, respectively; T0 and C0 are the tumor volumes of animals at the beginning of the experiment in the test group and the negative control group, respectively.
# (§6) If the volume of tumor shrinks compared with its initial volume, i.e., T<T0 […], it is defined as partial regression (PR) of tumor; if the tumor completely disappears, it is defined as complete regression (CR) of tumor.
# At the end of the experiment, the animals were sacrificed by CO2 anesthesia and dissected to give the tumors. The tumors were photographed.
# [4] = tested on: human B-cell lymphoma Daudi; assay: Subcutaneous mouse xenograft tumor of Daudi; assay type: in vivo, NOD-SCID mice; details: IV D0, 3, hz14A9-2.3 1.5 mg/kg, Rituximab 3 mg/kg
# Experimental: The experimental animals were NOD-SCID mice (5-6 weeks old, male) purchased from Shanghai Lingchang Biotechnology Co., Ltd., with the production license number of SCXK (Hu) 2018-0003 and the animal certification number of 20180003014870. The housing environment was in a SPF grade. Human B-cell lymphoma Daudi cells were purchased from Cell Bank of the Chinese Academy of Sciences. Daudi cells were cultured in an incubator at 37° C. with 5% CO2 in air. Subculturing was performed twice a week, and when the cells were in a logarithmic growth phase, the cells were collected, counted, and inoculated. 1×10^7 Daudi cells were inoculated to each mouse subcutaneously, and when tumors reached the volume of about 100 mm^3, the mice were divided into groups and injected with drugs intravenously (IV) once every 3 days (Q3D) for a total of 2 times at the injection volume of 0.1 mL/10 g of body weight.
# as §1, §2, §3, §4, §5, §6
# At the end of the experiment (D24), the animals were sacrificed by CO2 anesthesia and dissected to give the tumors. The tumors were photographed.
# [5] = 2 days after administration, single 10 mpk via tail vein
# [6] = 4 days after administration, single 10 mpk via tail vein
# [7] = 7 days after administration, single 10 mpk via tail vein
# [8] = 10 days after administration, single 10 mpk via tail vein
# [9] = 14 days after administration, single 10 mpk via tail vein
# [10] = day 0, single 10 mpk via tail vein
# [11] = hz14A9-2.3 0.5/1.5 mg/kg IV D0, 3, 6, 10
molecule,measurement,setting,value
"hz14A9-2.3: humanized anti-CD47 antibody, heavy chain SEQ ID NO: 181, light chain SEQ ID NO: 183 (antibody, heavy chain; light chain) heavy: QVQLVQSGAEVKKPGASVKVSCKVSGFNIEDDYIEWVRQAPGQGLEWMGRIDPANDKTKYAQKFQGRVTMTGDTSTNTVYMELSSLRSEDTAVYYCARPGLRRYYSMDYWGQGTLVTVSSASTKGPSVFPLAPCSRSTSESTAALGCLVKDYFPEPVTVSWNSGALTSGVHTFPAVLQSSGLYSLSSVVTVPSSSLGTKTYTCNVDHKPSNTKVDKRV[omitted - human IgG4 Fc with S228P (EU numbers)] light: DIQMTQSPSSLSASVGDRVTITCKASENVVSYVSWYQQKPGKAPKLLIYGASNRYTGVPSRFIGSGSSTDFTLTISSLQPEDFATYYCGQSYSYPLTFGQGTKLEIKRTVAAPSVFIFPPSDEQLKSGTASVVCLLNNFYPREAKVQWKVDNALQSGNSQESVTEQDSKDSTYSLSSTLTLSKADYEKHKVYACEVTHQGLSSPVTKSFNRGEC",rate of phagocytosis,HL60 cells; 1 μg/mL antibody,71.48%
same,rate of phagocytosis,HL60 cells; 10 μg/mL antibody,74.93%
same,promotion of phagocytosis (in words),HL60 cells; 10 and 1 μg/mL,better performance
same,Tagg (aggregation temperature),[1],73.42 °C
same,Tm (melting temperature),[1],68.10 °C
same,anti-tumor activity (in words),Raji cells,showed anti-tumor activity
same,day on which all the animals in the group died,Raji cells,34 days
same,median survival time,Raji cells,28.5 days
same,Rate of change in HGB level (vs before administration),[2]; [5],−13.3%
same,Rate of change in RBC (vs before administration),[2]; [5],−13.6%
same,Rate of change in body weight (vs before administration),[2]; [5],2.3%
same,Rate of change in HGB level (vs before administration),[2]; [6],−18.5%
same,Rate of change in RBC (vs before administration),[2]; [6],−16.7%
same,Rate of change in body weight (vs before administration),[2]; [6],6.3%
same,Rate of change in HGB level (vs before administration),[2]; [7],−9.9%
same,Rate of change in RBC (vs before administration),[2]; [7],−9.8%
same,Rate of change in body weight (vs before administration),[2]; [7],2.0%
same,Rate of change in HGB level (vs before administration),[2]; [8],−10.0%
same,Rate of change in RBC (vs before administration),[2]; [8],−8.5%
same,Rate of change in body weight (vs before administration),[2]; [8],5.9%
same,Rate of change in HGB level (vs before administration),[2]; [9],−3.9%
same,Rate of change in RBC (vs before administration),[2]; [9],−2.2%
same,Rate of change in body weight (vs before administration),[2]; [9],8.6%
same,Rate of change in HGB level (vs before administration),[2]; [10],0.0%
same,Rate of change in RBC (vs before administration),[2]; [10],0.0%
same,Rate of change in body weight (vs before administration),[2]; [10],0.0%
same,course of body weight after administration (in words),"[2]; mouse, in vivo, 10 mg/kg",continuous increase in body weight
same,time after administration at which RBC and HGB levels were substantially normalized,"[2]; mouse, in vivo, 10 mg/kg",7 days
same,toxicity (in words),[2]; single 10 mg/kg via tail vein,no significant toxicity
same,T/C(%) D12,[3]; [11],89%
same,Tumor growth inhibition (%) D12,[3]; [11],11%
same,"toxicity when combined with azacitadine, by body weight of the mice (in words)",[3]; hz14A9-2.3 added to azacitadine,did not significantly increase toxicity
same,T/C(%) D24,[4],30%
same,Tumor growth inhibition (%) D24,[4],70%
same,Partial regression (number of tumors),"[4]; hIgG4 4.5 mg/kg, 6 mice per group (hIgG4 10)",0
